Source: patent US20030198990A1 (UNIVERSITY OF ROCHESTER, published 2003)

Biological target: T1, His-tag column purified baculovirus AR (UniProt P10275 1-920, limits assumed)
T1 construct: About 2 ug used in the GST-Rb pull-down; detected with anti-AR polyclonal antibody NH27; not shown: His tag
T1 sequence (looked up): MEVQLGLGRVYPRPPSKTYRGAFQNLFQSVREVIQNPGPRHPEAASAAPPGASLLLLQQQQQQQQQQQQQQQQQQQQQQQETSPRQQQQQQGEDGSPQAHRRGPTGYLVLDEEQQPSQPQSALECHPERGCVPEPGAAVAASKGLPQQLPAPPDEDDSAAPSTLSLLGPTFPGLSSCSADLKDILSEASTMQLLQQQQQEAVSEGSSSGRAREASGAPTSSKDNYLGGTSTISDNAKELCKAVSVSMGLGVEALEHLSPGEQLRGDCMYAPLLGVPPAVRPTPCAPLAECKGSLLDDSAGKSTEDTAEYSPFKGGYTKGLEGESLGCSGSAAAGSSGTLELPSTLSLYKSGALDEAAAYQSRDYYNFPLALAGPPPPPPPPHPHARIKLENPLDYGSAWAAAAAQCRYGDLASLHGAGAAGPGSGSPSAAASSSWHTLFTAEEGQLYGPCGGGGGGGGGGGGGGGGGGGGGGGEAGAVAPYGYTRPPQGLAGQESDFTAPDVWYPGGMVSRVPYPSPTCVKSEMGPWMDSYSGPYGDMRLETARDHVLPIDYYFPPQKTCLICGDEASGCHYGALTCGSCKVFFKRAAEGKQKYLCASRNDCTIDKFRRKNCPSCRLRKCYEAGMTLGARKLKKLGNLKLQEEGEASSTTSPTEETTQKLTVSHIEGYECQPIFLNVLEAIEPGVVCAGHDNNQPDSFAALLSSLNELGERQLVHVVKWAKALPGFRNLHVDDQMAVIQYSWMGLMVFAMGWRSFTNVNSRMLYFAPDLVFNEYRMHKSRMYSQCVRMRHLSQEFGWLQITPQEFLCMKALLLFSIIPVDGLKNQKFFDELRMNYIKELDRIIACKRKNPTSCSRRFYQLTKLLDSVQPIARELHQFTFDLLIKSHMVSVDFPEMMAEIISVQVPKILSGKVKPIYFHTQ
Test: GST pull-down on glutathione-Sepharose beads, Western blot with anti-AR NH27

binding result: no binding
B1: GST alone (other)
chain: not shown
notes: Control of the pull-down; also called glutathione-S-transferase
